In article PMC4059916:
Results are given in words; binding and its absence hold for the method and conditions named. Some binding calls cover weakened binding; strength is not graded here. For part of these data: Where a sequence is shown, tags or fusion partners need not be part of it. One block for each binder: values may come before it.

Assays:
[1] = target: T1, VARP451-640His6 (first ankyrin repeat domain, ANKRD1), wild type (human) (UniProt Q96NW4); test: crystal structure; sitting drop vapor diffusion at 18°C, PEG 3350, 200 mM sodium citrate pH 8.0; molecular replacement; both purified
T1 sequence: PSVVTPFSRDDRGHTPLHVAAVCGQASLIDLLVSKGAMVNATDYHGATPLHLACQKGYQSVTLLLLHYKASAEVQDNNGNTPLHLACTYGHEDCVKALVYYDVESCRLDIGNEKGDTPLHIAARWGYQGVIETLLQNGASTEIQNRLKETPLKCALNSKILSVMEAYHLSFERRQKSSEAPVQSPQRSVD

[2] = target: VARP ANKRD1 (451-640):Rab32(Q85L) 1:1 heterodimer (UniProt Q96NW4); test: SEC-MALS; size exclusion chromatography with multiangle light scattering, data not shown; both purified
[3] = target: VARP ANKRD1 (451-640):Rab32(Q85L) 1:1 heterodimer (UniProt Q96NW4); test: SEC; analytical gel filtration of the VARP ANKRD1:Rab32 complex at different concentrations; both purified
[4] = target: VARP ANKRD1 (451-640):Rab32(Q85L) 1:1 heterodimer (UniProt Q96NW4); test: crystal structure; sitting drop vapor diffusion at 18°C, PEG 3350, 200 mM sodium citrate pH 8.0; molecular replacement; both purified
[5] = target: T2, GSTRab32(Q85L) (UniProt Q13637); test: pull-down; GSTRab32(Q85L) or GST as bait on GSH-sepharose, VARP451-640His6 as prey; 25-50 μg bait, 300 μg prey in 500 μl; 5 mM MgCl2, 0.5 mM TCEP, 100 μM matching nucleotide; 1 hr at 4°C; washes with 1% NP40; Coomassie and anti-His probe blot; both purified
T2 sequence: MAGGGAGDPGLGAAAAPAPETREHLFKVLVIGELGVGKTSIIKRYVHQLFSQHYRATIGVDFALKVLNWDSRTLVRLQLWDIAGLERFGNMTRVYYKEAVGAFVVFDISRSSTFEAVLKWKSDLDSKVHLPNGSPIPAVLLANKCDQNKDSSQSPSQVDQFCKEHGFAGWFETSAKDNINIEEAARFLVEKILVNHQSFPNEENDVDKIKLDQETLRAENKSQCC

[6] = target: T3, VARP451-640His6 L513D (human) (UniProt Q96NW4); test: ITC; Nano ITC; VARP constructs at 60 μM in the cell at 4°C, Rab constructs at 300 μM titrated, 24 injections of 2 μl; 50 mM HEPES pH 7.4, 200 mM NaCl, 5 mM MgCl2, 1 mM TCEP; both purified
T3 sequence: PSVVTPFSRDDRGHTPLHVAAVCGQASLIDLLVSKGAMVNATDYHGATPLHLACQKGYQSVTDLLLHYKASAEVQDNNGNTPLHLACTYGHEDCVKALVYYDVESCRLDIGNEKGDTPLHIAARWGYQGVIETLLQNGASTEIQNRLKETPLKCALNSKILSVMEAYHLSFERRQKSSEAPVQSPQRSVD

[7] = target: T4, VARP451-640His6 Q509A/Y550A (human) (UniProt Q96NW4); test: condition: Rab constructs at 300 μM titrated into VARP constructs at 60 μM; ITC; Nano ITC; VARP constructs at 60 μM in the cell at 4°C, Rab constructs at 300 μM titrated, 24 injections of 2 μl; 50 mM HEPES pH 7.4, 200 mM NaCl, 5 mM MgCl2, 1 mM TCEP; both purified
T4 sequence: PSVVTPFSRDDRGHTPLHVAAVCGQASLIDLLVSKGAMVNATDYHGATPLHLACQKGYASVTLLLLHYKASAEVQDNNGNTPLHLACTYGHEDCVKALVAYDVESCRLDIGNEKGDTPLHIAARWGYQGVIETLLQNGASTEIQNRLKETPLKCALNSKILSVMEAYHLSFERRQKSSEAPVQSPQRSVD

B3: VARP451-640His6 Q509A/Y550A (domain or fragment, UniProt Q96NW4 451-640)
chain: PSVVTPFSRDDRGHTPLHVAAVCGQASLIDLLVSKGAMVNATDYHGATPLHLACQKGYASVTLLLLHYKASAEVQDNNGNTPLHLACTYGHEDCVKALVAYDVESCRLDIGNEKGDTPLHIAARWGYQGVIETLLQNGASTEIQNRLKETPLKCALNSKILSVMEAYHLSFERRQKSSEAPVQSPQRSVD
- binding [5]: no binding (tested: 300 μg prey protein in 500 μl)

B5: VARP451-640His6 L513D (domain or fragment, UniProt Q96NW4 451-640)
chain: PSVVTPFSRDDRGHTPLHVAAVCGQASLIDLLVSKGAMVNATDYHGATPLHLACQKGYQSVTDLLLHYKASAEVQDNNGNTPLHLACTYGHEDCVKALVYYDVESCRLDIGNEKGDTPLHIAARWGYQGVIETLLQNGASTEIQNRLKETPLKCALNSKILSVMEAYHLSFERRQKSSEAPVQSPQRSVD
- binding [5]: no binding (tested: 300 μg prey protein in 500 μl)

B6: VARP451-640His6 L513D/K546D (domain or fragment, UniProt Q96NW4 451-640)
chain: PSVVTPFSRDDRGHTPLHVAAVCGQASLIDLLVSKGAMVNATDYHGATPLHLACQKGYQSVTDLLLHYKASAEVQDNNGNTPLHLACTYGHEDCVDALVYYDVESCRLDIGNEKGDTPLHIAARWGYQGVIETLLQNGASTEIQNRLKETPLKCALNSKILSVMEAYHLSFERRQKSSEAPVQSPQRSVD
- binding [5]: no binding (tested: 300 μg prey protein in 500 μl)

Further lines, results first:

- binding [1]: binds
B1: SeMet-Rab38 (Q69L) (enzyme, UniProt P57729 1-211)
chain: MQAPHKEHLYKLLVIGDLGVGKTSIIKRYVHQNFSSHYRATIGVDFALKVLHWDPETVVRLQLWDIAGLERFGNMTRVYYREAMGAFIVFDVTRPATFEAVAKWKNDLDSKLSLPNGKPVSVVLLANKCDQGKDVLMNNGLKMDQFCKEHGFVGWFETSAKENINIDEASRCLVKHILANECDLMESIEPDVVKPHLTSTKVASCSGCAKS
modifications: selenomethionine (SeMet protein)

- binding [2]: binds
- binding [3]: binds
- binding [4]: binds
B2: VARP ANKRD1 (451-640):Rab32(Q85L) 1:1 heterodimer (complex, UniProt Q96NW4 451-640; Q13637 1-225)
chain 1: PSVVTPFSRDDRGHTPLHVAAVCGQASLIDLLVSKGAMVNATDYHGATPLHLACQKGYQSVTLLLLHYKASAEVQDNNGNTPLHLACTYGHEDCVKALVYYDVESCRLDIGNEKGDTPLHIAARWGYQGVIETLLQNGASTEIQNRLKETPLKCALNSKILSVMEAYHLSFERRQKSSEAPVQSPQRSVD
chain 2: MAGGGAGDPGLGAAAAPAPETREHLFKVLVIGELGVGKTSIIKRYVHQLFSQHYRATIGVDFALKVLNWDSRTLVRLQLWDIAGLERFGNMTRVYYKEAVGAFVVFDISRSSTFEAVLKWKSDLDSKVHLPNGSPIPAVLLANKCDQNKDSSQSPSQVDQFCKEHGFAGWFETSAKDNINIEEAARFLVEKILVNHQSFPNEENDVDKIKLDQETLRAENKSQCC

- binding [6]: no binding (tested: KD > 300 μM)
- binding [7]: no binding
B4: Rab32 1-225 (Q85L), GTP hydrolysis-defective mutant, GST removed (enzyme, UniProt Q13637 1-225)
chain: MAGGGAGDPGLGAAAAPAPETREHLFKVLVIGELGVGKTSIIKRYVHQLFSQHYRATIGVDFALKVLNWDSRTLVRLQLWDIAGLERFGNMTRVYYKEAVGAFVVFDISRSSTFEAVLKWKSDLDSKVHLPNGSPIPAVLLANKCDQNKDSSQSPSQVDQFCKEHGFAGWFETSAKDNINIEEAARFLVEKILVNHQSFPNEENDVDKIKLDQETLRAENKSQCC
